Measured values from the supplement of paper PMC10126150.
Values marked as one replicate rest on one cluster of the flow cell; about a third of the high ones do not repeat.
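Note: ATP exposure 15 min at 22 °C before imaging.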

These sequences were tested on ATP (assay: switch fluorescence ratio, 500 uM ATP over buffer (Cy3 cluster intensity, sum of 5 cycles each) (fold (ratio)); higher = stronger signal-on switching upon ATP binding; sequences stand for … in TCGTCGGCAGCGTCAGATGTGTATAAGAGACAGTTTTTTTTTTTTTTTTTTTTTTTTT…TC). Details: aptamer strand: ATP DNA aptamer (quencher-CACCTGGGGGAGTATTGCGGAGGAAGG + anchor), 100 nM annealed; ATP concentration: 500 uM; one replicate.
Procedure, shortened: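 Clusters with intensities outside 100-1000 RFU were excluded. The remaining Cy3-labelled switching-strand clusters on a modified Illumina MiSeq flow-cell had been annealed to 100 nM quencher-labelled ATP aptamer and imaged in selection buffer, then after 15 min with 500 uM ATP at 22 °C, for five cycles separated by NaOH stripping and re-annealing. The fluorescence ratio, averaged per switch-domain sequence, is each cluster's summed target-cycle Cy3 intensity over its summed buffer-cycle Cy3 intensity.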
AGATTGGTGG showed a switch fluorescence ratio of 0.975. AGATTGTA gave a switch fluorescence ratio of 0.98. With AGATTGTCGT the switch fluorescence ratio was 0.996. For AGATTTAGA, the switch fluorescence ratio was 1.02. With AGATTTGTTT the switch fluorescence ratio was 1.03. Work on AGATTTTAGA yielded a switch fluorescence ratio of 0.946. Sequence AGCAAACGGA has a switch fluorescence ratio of 1.89. Sequence AGCAACAGCT has a switch fluorescence ratio of 1.01. With AGCAAGAAGT the switch fluorescence ratio was 1.03. With AGCAATCTTC the switch fluorescence ratio was 3.87. For AGCAATGCTG, the switch fluorescence ratio was 1.63. In the case of AGCACATGTT, the switch fluorescence ratio is reported as 1. In the case of AGCACGGAGG, the switch fluorescence ratio is reported as 0.974. For AGCACTATTT, the switch fluorescence ratio was 0.968. Work on AGCACTGTGG yielded a switch fluorescence ratio of 1.04. For AGCACTTAGT, the switch fluorescence ratio was 1.03. Work on AGCAGATGCG yielded a switch fluorescence ratio of 1. In the case of AGCAGATGGG, the switch fluorescence ratio is reported as 0.985. Sequence AGCAGCGGTG has a switch fluorescence ratio of 1.01. AGCAGGACGC gave a switch fluorescence ratio of 1.13. With AGCAGTAAGC the switch fluorescence ratio was 1.03. Work on AGCAGTGATC yielded a switch fluorescence ratio of 1.1. Sequence AGCAGTGTTG has a switch fluorescence ratio of 1.01. Sequence AGCATAAAAA has a switch fluorescence ratio of 0.995. In the case of AGCATAATCT, the switch fluorescence ratio is reported as 1.11. In the case of AGCATATGCT, the switch fluorescence ratio is reported as 1.05. With AGCATCCACC the switch fluorescence ratio was 1.19. In the case of AGCATGGATA, the switch fluorescence ratio is reported as 1.01. With AGCATGTCGA the switch fluorescence ratio was 1.08. In the case of AGCATGTGTG, the switch fluorescence ratio is reported as 1.05. In the case of AGCATGTTGG, the switch fluorescence ratio is reported as 0.97. AGCCACTATT showed a switch fluorescence ratio of 1. AGCCAGCTGG was tested, and the switch fluorescence ratio was 0.98. Work on AGCCAGGGTT yielded a switch fluorescence ratio of 0.974. Sequence AGCCATTGTG has a switch fluorescence ratio of 0.986. In the case of AGCCATTTTT, the switch fluorescence ratio is reported as 0.947. AGCCCCCGGA gave a switch fluorescence ratio of 1.06. Work on AGCCCGAGAC yielded a switch fluorescence ratio of 1.31. For AGCCCGGACT, the switch fluorescence ratio was 1.1. Work on AGCCCGGTCG yielded a switch fluorescence ratio of 0.959. Sequence AGCCCTAGTG has a switch fluorescence ratio of 1.14. Work on AGCCCTGATG yielded a switch fluorescence ratio of 1.02. Work on AGCCGACACA yielded a switch fluorescence ratio of 1.01. For AGCCGAGTTT, the switch fluorescence ratio was 0.998. Work on AGCCGATTGG yielded a switch fluorescence ratio of 1.01. Sequence AGCCGCTGGT has a switch fluorescence ratio of 1.01. Work on AGCCGTGCTT yielded a switch fluorescence ratio of 0.91. Sequence AGCCGTGTTA has a switch fluorescence ratio of 0.964. For AGCCTCATAC, the switch fluorescence ratio was 1.83. Sequence AGCCTCTAAG has a switch fluorescence ratio of 1.01. With AGCCTGACAA the switch fluorescence ratio was 1.08. Work on AGCCTGAGCT yielded a switch fluorescence ratio of 0.99. AGCCTGTACT was tested, and the switch fluorescence ratio was 1.07. AGCCTGTGTC was tested, and the switch fluorescence ratio was 0.988. In the case of AGCCTTTACG, the switch fluorescence ratio is reported as 0.998. In the case of AGCCTTTTGA, the switch fluorescence ratio is reported as 1.03. AGCGAACACC showed a switch fluorescence ratio of 1.16. AGCGACCGA was tested, and the switch fluorescence ratio was 1.05. For AGCGACGCGT, the switch fluorescence ratio was 0.982. With AGCGACTTGC the switch fluorescence ratio was 1.01. Work on AGCGAGATCT yielded a switch fluorescence ratio of 1.02. With AGCGATATCT the switch fluorescence ratio was 1.56. AGCGATCAC showed a switch fluorescence ratio of 3.13. AGCGATGGAG was tested, and the switch fluorescence ratio was 1.04. AGCGCACCAT gave a switch fluorescence ratio of 1.05. Work on AGCGCCCAGT yielded a switch fluorescence ratio of 1.12. AGCGCCTCGC showed a switch fluorescence ratio of 1.01. AGCGCTCGTC showed a switch fluorescence ratio of 1.02. AGCGCTCTTC gave a switch fluorescence ratio of 1. In the case of AGCGGCAAAC, the switch fluorescence ratio is reported as 3.22. AGCGGCCTAG gave a switch fluorescence ratio of 0.956. Work on AGCGGCGAAA yielded a switch fluorescence ratio of 1.06. Sequence AGCGGCGTTT has a switch fluorescence ratio of 0.994. AGCGGCTTTG showed a switch fluorescence ratio of 0.992. Sequence AGCGGGGAAG has a switch fluorescence ratio of 1.03. In the case of AGCGGGGCTC, the switch fluorescence ratio is reported as 1.05. AGCGGGGGCG gave a switch fluorescence ratio of 0.98. Sequence AGCGGGTGGC has a switch fluorescence ratio of 1.04. AGCGGTTCTG was tested, and the switch fluorescence ratio was 1.09. AGCGGTTGCT gave a switch fluorescence ratio of 0.991. Work on AGCGTACCTT yielded a switch fluorescence ratio of 1.17. AGCGTCAAT was tested, and the switch fluorescence ratio was 1.05. With AGCGTCAATG the switch fluorescence ratio was 1.01. For AGCGTGAAAA, the switch fluorescence ratio was 1.09. With AGCGTGAGTC the switch fluorescence ratio was 1.06. With AGCGTGTCCC the switch fluorescence ratio was 1.09. Work on AGCGTTCCAA yielded a switch fluorescence ratio of 0.996. AGCGTTTCCA gave a switch fluorescence ratio of 0.981. With AGCTAAAAAT the switch fluorescence ratio was 1.02. Work on AGCTAAGGGA yielded a switch fluorescence ratio of 1. Work on AGCTAATCCA yielded a switch fluorescence ratio of 0.993. In the case of AGCTACGGAA, the switch fluorescence ratio is reported as 1.77. AGCTAGGGTT showed a switch fluorescence ratio of 1.01. For AGCTAGTGCC, the switch fluorescence ratio was 0.995. In the case of AGCTATGTAT, the switch fluorescence ratio is reported as 1.02. AGCTATGTCC showed a switch fluorescence ratio of 1.06. Sequence AGCTCAAGTG has a switch fluorescence ratio of 1.01. In the case of AGCTCCAGGG, the switch fluorescence ratio is reported as 1.22. AGCTCGCTAC gave a switch fluorescence ratio of 1.38. In the case of AGCTGAATCA, the switch fluorescence ratio is reported as 1.17. AGCTGACAA gave a switch fluorescence ratio of 1.01. Work on AGCTGACCGC yielded a switch fluorescence ratio of 1.04. For AGCTGCGATA, the switch fluorescence ratio was 1.14. With AGCTGCGGAG the switch fluorescence ratio was 0.993. AGCTGCTTCC was tested, and the switch fluorescence ratio was 1.81. Sequence AGCTGTAACT has a switch fluorescence ratio of 0.967. With AGCTGTCTGT the switch fluorescence ratio was 1. For AGCTGTGGC, the switch fluorescence ratio was 1.03. With AGCTGTTGGC the switch fluorescence ratio was 1. In the case of AGCTTAAACG, the switch fluorescence ratio is reported as 1.02. In the case of AGCTTACTGG, the switch fluorescence ratio is reported as 1.06. With AGCTTATCGT the switch fluorescence ratio was 0.952. With AGCTTCCCGG the switch fluorescence ratio was 1.44. AGCTTCCGGT gave a switch fluorescence ratio of 1.04. Sequence AGCTTGCGAC has a switch fluorescence ratio of 1.08. In the case of AGCTTGCGGT, the switch fluorescence ratio is reported as 1.01. For AGCTTGGGGT, the switch fluorescence ratio was 0.94. In the case of AGCTTTAGTG, the switch fluorescence ratio is reported as 1. Work on AGCTTTGAAG yielded a switch fluorescence ratio of 1. With AGGAAAACGA the switch fluorescence ratio was 0.995. Work on AGGAACCCGT yielded a switch fluorescence ratio of 0.993. AGGAACTCCC gave a switch fluorescence ratio of 1.12. In the case of AGGAAGTTAC, the switch fluorescence ratio is reported as 1.11. AGGAATAGCA gave a switch fluorescence ratio of 1.04. In the case of AGGAATAGGA, the switch fluorescence ratio is reported as 0.993. AGGAATGCCG was tested, and the switch fluorescence ratio was 0.959. Sequence AGGAATGGCG has a switch fluorescence ratio of 0.935. In the case of AGGAATTAGC, the switch fluorescence ratio is reported as 1.05. AGGACAAAAG was tested, and the switch fluorescence ratio was 1.02. For AGGACAAAGT, the switch fluorescence ratio was 0.973. In the case of AGGACAGGA, the switch fluorescence ratio is reported as 1.04. Sequence AGGACCGT has a switch fluorescence ratio of 1.01. AGGACGCAT gave a switch fluorescence ratio of 1.82. With AGGACGGTTA the switch fluorescence ratio was 1.04. Work on AGGACGTGGA yielded a switch fluorescence ratio of 1.03. For AGGACTCCTG, the switch fluorescence ratio was 1. With AGGACTGTCG the switch fluorescence ratio was 0.945. In the case of AGGACTTTGA, the switch fluorescence ratio is reported as 1.02. AGGAGACCGA gave a switch fluorescence ratio of 1. With AGGAGAGAAA the switch fluorescence ratio was 1. For AGGAGATAG, the switch fluorescence ratio was 0.982. AGGAGATGTG gave a switch fluorescence ratio of 0.993. AGGAGATGTT showed a switch fluorescence ratio of 0.98. For AGGAGCATCA, the switch fluorescence ratio was 0.979. Sequence AGGAGGCCGT has a switch fluorescence ratio of 1.01. AGGAGGCGT showed a switch fluorescence ratio of 0.975. For AGGAGGGATT, the switch fluorescence ratio was 1.02. With AGGAGGGTCC the switch fluorescence ratio was 0.942. AGGAGTAGTT showed a switch fluorescence ratio of 1.02. AGGATAACCT was tested, and the switch fluorescence ratio was 1.52. In the case of AGGATAACGC, the switch fluorescence ratio is reported as 1.1. AGGATACAAC gave a switch fluorescence ratio of 1.02. For AGGATAGAAC, the switch fluorescence ratio was 1. In the case of AGGATAGGGA, the switch fluorescence ratio is reported as 1.04. With AGGATATCAC the switch fluorescence ratio was 1.01. Sequence AGGATATTGC has a switch fluorescence ratio of 0.978. Work on AGGATGAGTT yielded a switch fluorescence ratio of 0.928. For AGGATGTA, the switch fluorescence ratio was 0.972. Sequence AGGATGTATA has a switch fluorescence ratio of 0.99. For AGGATTTCGC, the switch fluorescence ratio was 1.03. Work on AGGCAACAGC yielded a switch fluorescence ratio of 1.05. AGGCAATCGA gave a switch fluorescence ratio of 1.35. Work on AGGCACTATA yielded a switch fluorescence ratio of 1. In the case of AGGCAGGTAG, the switch fluorescence ratio is reported as 1.01. AGGCATCAAG was tested, and the switch fluorescence ratio was 0.99. AGGCCATCCA was tested, and the switch fluorescence ratio was 0.983. AGGCCGGAA was tested, and the switch fluorescence ratio was 1.05. AGGCCTTTT was tested, and the switch fluorescence ratio was 1.02. AGGCGAATCT was tested, and the switch fluorescence ratio was 0.982. With AGGCGAGAGG the switch fluorescence ratio was 0.98. With AGGCGCATGT the switch fluorescence ratio was 1.09. AGGCGCCGTT showed a switch fluorescence ratio of 1.03. Sequence AGGCGCTACA has a switch fluorescence ratio of 1. AGGCGGACGG showed a switch fluorescence ratio of 1.02. For AGGCGGCTAA, the switch fluorescence ratio was 0.966. Work on AGGCGTAATG yielded a switch fluorescence ratio of 0.983. AGGCGTCGTT gave a switch fluorescence ratio of 1.01. For AGGCTAATTG, the switch fluorescence ratio was 0.999. AGGCTACGAT was tested, and the switch fluorescence ratio was 1.02. AGGCTAGATA showed a switch fluorescence ratio of 0.99. AGGCTAGCTG was tested, and the switch fluorescence ratio was 0.999. AGGCTAGGG showed a switch fluorescence ratio of 1.04. AGGCTCGAAT showed a switch fluorescence ratio of 1.01. Sequence AGGCTCGTCG has a switch fluorescence ratio of 0.982. Sequence AGGCTGCTCG has a switch fluorescence ratio of 0.979. AGGCTGTGG gave a switch fluorescence ratio of 0.979. Work on AGGCTTAAA yielded a switch fluorescence ratio of 0.966. For AGGCTTCAC, the switch fluorescence ratio was 1.02. AGGGAAAGAC gave a switch fluorescence ratio of 1.1. For AGGGAAAGAT, the switch fluorescence ratio was 0.984. In the case of AGGGAACGAG, the switch fluorescence ratio is reported as 1.01. AGGGACCTCG showed a switch fluorescence ratio of 0.978. AGGGACGGGA showed a switch fluorescence ratio of 1.03. In the case of AGGGAGAATC, the switch fluorescence ratio is reported as 0.992. Work on AGGGAGTGAG yielded a switch fluorescence ratio of 0.992. AGGGCAGCCT gave a switch fluorescence ratio of 1. In the case of AGGGCCAATA, the switch fluorescence ratio is reported as 1.09. AGGGCCGGCT gave a switch fluorescence ratio of 0.942. Sequence AGGGCCGTTT has a switch fluorescence ratio of 1.05. For AGGGCCTCAC, the switch fluorescence ratio was 1.02. AGGGCGAGCC gave a switch fluorescence ratio of 0.992.
